# Measurements from the supplement of paper PMC12217912.
# The list shows a part of the results. The full chains were built here from the parent and the listed change. Values near 0.05 are background.
# B1: TEV protease; numbered along this chain (parent)
# chain: MGESLFKGPRDYNPISSSICHLTNESDGHTTSLYGIGFGPFIITNKHLFRRNNGTLVVQSLHGVFKVKDTTTLQQHLVDGRDMIIIRMPKDFPPFPQKLKFREPQREERICLVTTNFQTKSMSSMVSDTSCTFPSGDGIFWKHWIQTKDGQCGSPLVSTRDGFIVGIHSASNFTNTNNYFTSVPKNFMELLTNQEAQQWVSGWRLNADSVLWGGHKVFMVKPEEPFQPVKEATQL
# Variants of: B1
# Assay: raw area under fraction-flipped curve 0-4 h after induction (AUC4h, not background-subtracted), DNA-recorder readout of cleavage of the substrate (dimensionless); higher = more cleavage of the substrate by the protease variant
# Conditions: temperature: 34 °C; time window: 0-4 h after rhamnose induction
# Procedure: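 In vivo DNA recorder in E. coli TOP10(DE3) ΔrhaA at 34 °C. Each TEVp single-site mutant (parent TEVp 0) is paired with a single-site variant of the 7-mer TEVs (canonical ENLYFQ|S). The substrate sits between flexible linkers in a Bxb1-sfGFP-TEVs-SsrA fusion, so cleavage stabilises Bxb1 and speeds flipping of a recombination array, read by NGS. The value is the raw area under the fraction-flipped curve over 0-4 h after rhamnose induction (AUC4h), with ≥20 reads per time point. It is not background-subtracted; inactive controls average about 0.047.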
# 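Note: Bxb1 expression induced with 0.2% (w/v) L-rhamnose at OD600 near 0.5, cultures sampled hourly, flipped fraction per protease–substrate barcode pair counted by paired-end Illumina sequencing.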
Variant,area with substrate ENLYFQA,area with substrate ENLYFQC,area with substrate ENLYFQE,area with substrate ENLYFQF,area with substrate ENLYFQG,area with substrate ENLYFQH,area with substrate ENLYFQI,area with substrate ENLYFQK,area with substrate ENLYFQN,area with substrate ENLYFQP,area with substrate ENLYFQR,area with substrate ENLYFQS,area with substrate ENLYFQT,area with substrate ENLYFQW,area with substrate ENLYFQY,area with substrate ENLYFQQ,area with substrate ENLYFQV,area with substrate ENLYFQD,area with substrate ENLYFQL,area with substrate ENLYFQM
F41M,0.107,0.154,0.0398,0.079,0.0965,0.0674,0.0632,0.0638,0.0697,0.0601,0.0572,0.0998,0.0599,0.0765,0.0437,–,–,–,–,–
V113E,0.0612,0.0671,–,0.0543,0.0447,–,0.0524,0.043,0.0556,0.0587,–,0.0656,–,–,0.0605,0.0523,0.0413,–,–,–
Q97M,0.0941,–,0.0746,0.112,0.0863,0.0917,–,0.0374,0.0584,0.0755,0.075,0.1,0.0635,0.0673,–,–,0.0584,0.0801,0.0676,0.0738
G150S,0.066,0.0224,–,–,–,0.0476,–,–,0.0588,–,0.0669,0.0612,0.0728,–,–,–,–,0.0416,0.0412,0.0748
F163C,0.093,–,–,–,–,–,–,–,–,–,–,0.11,0.0758,–,–,–,–,–,0.0709,–
S169V,0.0556,0.0709,–,–,–,–,0.0659,0.0753,0.081,0.032,0.0588,0.0728,0.0518,0.0429,0.0567,–,0.055,–,–,0.0364
G35Y,0.0372,–,–,–,–,–,–,–,0.0488,–,–,0.0459,–,0.0566,0.0227,–,–,–,–,–
T114G,0.13,–,0.0493,0.0973,0.0941,0.0858,0.0547,–,0.0834,–,–,0.122,0.0794,–,–,–,–,–,–,0.0939
G166H,0.0479,0.0524,–,0.0425,0.0803,–,0.0506,0.0591,0.0797,–,0.058,0.0513,0.0463,0.0476,–,0.0699,0.0538,0.0431,0.0478,–
H62Q,0.0985,0.115,–,–,–,–,0.0617,–,0.0678,–,–,0.101,0.0868,–,0.0729,0.0624,–,0.0778,0.0553,0.0829
W141D,0.0422,–,–,–,–,0.0486,0.0542,0.0548,–,–,0.0524,0.0562,–,–,0.0595,–,–,–,0.0598,0.0735
E108W,0.0818,0.0795,0.0512,0.0585,0.072,0.0565,0.049,0.0554,0.0731,0.0516,0.034,0.0625,0.0536,0.0588,–,–,–,0.0608,–,0.0622
F95Q,0.0707,–,–,–,–,–,–,–,–,–,–,0.0712,0.0468,–,–,0.0367,–,–,–,–
I85N,0.0356,0.0572,–,–,0.0506,–,0.0372,–,0.0515,–,0.0843,0.0531,0.0484,–,–,–,–,–,0.0459,0.0469
F117I,0.09,0.104,–,–,–,0.0302,–,–,0.0782,0.0698,0.0664,0.0956,0.0703,–,–,–,–,0.0622,0.0623,–
L61I,0.0864,0.102,0.0625,–,–,0.082,0.0598,0.0671,0.0805,–,–,0.109,–,0.022,–,–,–,–,–,–
